Data taken from PubChem BioAssay AID624417 (National Center for Advancing Translational Sciences (NCATS), 2012).
Several values for one entry are separate records, joined by “and”; a condition that tells them apart may be missing. Equal entries are not always repeated. In all, about 410,000 compounds went through this assay and about 6,400 (1.6%) were called active. Inconclusive means that the source gave no clear call. Such entries were picked first, then a sample of the others. The call rests on the fitted dose curve; in most records, active means well fitted inhibition curve with a large enough effect; inconclusive means small, poorly fitted or top-dose-only effect; inactive means no such curve, though single readings can be large or run the other way. Potencies beside an inconclusive call are fits to weak or partial responses and may not hold up.

The compounds below were run against Glucagon-like peptide 1 receptor (Homo sapiens) (UniProt P43220) (assay: qHTS of GLP-1 Receptor Inverse Agonists (Inhibition Mode)). Details: HEK293 GLP-1R CRE-luciferase, luminescence, 24 h, GLP-1R form is constitutively active; series mostly up to 38.3 µM.
Chain of UniProt P43220 (P43220 whole entry, looked up): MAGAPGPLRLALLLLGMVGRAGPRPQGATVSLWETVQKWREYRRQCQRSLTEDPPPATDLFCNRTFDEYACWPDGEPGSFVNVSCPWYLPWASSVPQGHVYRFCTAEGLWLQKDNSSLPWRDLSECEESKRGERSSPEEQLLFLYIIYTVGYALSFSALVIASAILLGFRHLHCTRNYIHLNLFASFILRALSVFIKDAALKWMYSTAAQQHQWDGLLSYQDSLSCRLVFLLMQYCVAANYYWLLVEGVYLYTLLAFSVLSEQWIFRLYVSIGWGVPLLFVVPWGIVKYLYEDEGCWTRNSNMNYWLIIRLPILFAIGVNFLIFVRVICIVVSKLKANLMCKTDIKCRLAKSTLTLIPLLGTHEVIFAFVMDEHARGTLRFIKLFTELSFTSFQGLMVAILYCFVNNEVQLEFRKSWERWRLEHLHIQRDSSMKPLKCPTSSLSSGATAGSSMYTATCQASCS
Procedure, shortened: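 Inverse agonism was detected as reduced cAMP-driven luciferase luminescence after 24 h compound treatment. The cells were HEK293 clones expressing constitutively active human GLP-1R with the reporter. Reporter-only and GPR119 cell lines served as counterscreen controls.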
Further: nearly all actives have a fitted effect of over 55% in size.
Potency means the concentration at half of the fitted maximal effect; tags describe the fitted curve by direction and shape.

Potency, active:
CS(=O)(=O)c1ncc(Cl)c(C(=O)N(Cc2ccc(Cl)cc2)Cc2ccco2)n1 8.91 µM

Potency, inconclusive:
CCOc1ccccc1NC(=O)COC(=O)C(CC(C)C)N1C(=O)C2CC=CCC2C1=O (stereo unspecified) 5.01 µM [inhibitor, partial curve]
O=C1C2C3C=CC(CC3)C2C(=O)N1c1ccc(Cl)cc1Cl (stereo unspecified) 11.2 µM [inhibitor, single point]
CN(C)CCCNc1c2c(nc3ccccc13)CCC2 28.2 µM [inhibitor, single point]
C=C1C(=O)C23CCC4C(C)(C(=O)OC)CCCC4(C)C2CCC1(O)C3 (stereo unspecified) 2 µM [inhibitor, full curve, poor fit]
COc1ccc(CN2C3CCCC2CC(NC(=O)/C=C/c2ccccc2)C3)cc1 (stereo unspecified) 6.31 µM [inhibitor, partial curve, poor fit]
CCN(CC)C(=S)NC(=O)c1ccc(F)cc1 28.2 µM [inhibitor, single point]
Cc1c(C)n(C)c2ccc(C(=O)NCCCN3CCN(c4ccccc4F)CC3)cc12 11.2 µM [inhibitor, partial curve, poor fit]
COc1ccc2c(c1OC)CN(C)CCc1cc3c(cc1C(O)C2)OCO3 (stereo unspecified) 0.501 µM [inhibitor, full curve, poor fit]
CC(C)c1cc(-c2cc(-c3ccccc3)on2)nc(NC2CCCC2)n1 12.6 µM [inhibitor, single point]
O=C(N/N=C\c1cccc(Cl)c1)c1n[nH]c2c1CCCC2 8.91 µM [inhibitor, partial curve, poor fit]
Cc1ccc(CCNC(=O)C(C)n2nc(C)c3c(C)n(-c4ccc(C)cc4)nc3c2=O)cc1 (stereo unspecified) 31.6 µM [inhibitor, partial curve, poor fit]
COc1ccc(CCNC(=O)c2nc(SCc3ccc(F)cc3)ncc2Cl)cc1OC 31.6 µM [inhibitor, single point]
COc1ccc(C(=O)C(C)OC(=O)c2cccc(S(=O)(=O)Nc3c(C)n(C)n(-c4ccccc4)c3=O)c2)cc1 (stereo unspecified) 7.94 µM [inhibitor, partial curve, poor fit]
Nc1ccc(C(=O)NCC2(c3ccccc3)CCCC2)cc1 8.91 µM [inhibitor, partial curve]
CS(=O)(=O)Nc1ccc(Cc2ccc(NS(C)(=O)=O)cc2)cc1 22.4 µM [inhibitor, single point]
CCOc1cccc(/C=N/N2CCN(c3ccc(Cl)cc3)CC2)c1O 7.94 µM [inhibitor, partial curve, poor fit]
CN(C)Cc1csc(NC(=O)Nc2cccc(C(F)(F)F)c2)n1 11.2 µM [inhibitor, partial curve, poor fit]
COc1cccc(CN(C)CC(=O)NCc2ccc(C)cc2)c1 8.91 µM [inhibitor, partial curve, poor fit]
Cc1ccc(OCCOC(=O)c2c(-c3ccccc3)noc2C)cc1 7.94 µM [inhibitor, partial curve, poor fit]
COc1ccc(OCc2cc(C(=O)NC(C)c3csc(C)n3)no2)c(Cl)c1 (stereo unspecified) 8.91 µM [inhibitor, partial curve, poor fit]
Cc1ccc(CC(=O)Nc2ccccc2N2CCOCC2)cc1C 11.2 µM [inhibitor, single point]
CC1(C)CC(NCCC(c2ccccc2)c2ccco2)CCO1 (stereo unspecified) 8.91 µM [inhibitor, single point]
COc1cc(/C=N/NC(=O)c2cc(-c3cccc(OC(C)C)c3)nc3ccccc23)ccc1O 3.55 µM [inhibitor, partial curve]
Cc1ccc(S(=O)(=O)CC(=O)Nc2nc(C(C)(C)C)cs2)cc1 10 µM [inhibitor, partial curve, poor fit]
COc1ccc(/C=N/n2c(C3CCCCC3)n[nH]c2=S)c(OC)c1 28.2 µM [inhibitor, single point]
Cc1ccc2cc(CN(CC3CCCO3)C(=S)Nc3ccccc3)c(=O)[nH]c2c1C (stereo unspecified) 11.2 µM [inhibitor, partial curve, poor fit]
COc1cccc(CN(C)C(=O)c2cc(S(=O)(=O)N3CCCCCC3)ccc2OC)c1 25.1 µM [inhibitor, single point]
O=C(Cc1ccccc1)Nc1nc2ccccc2s1 28.2 µM [inhibitor, single point]
COc1cccc(OCC(O)CN(CCO)Cc2ccccc2)c1 (stereo unspecified) 7.08 µM [inhibitor, partial curve, poor fit]
CC1Sc2ccc(S(=O)(=O)N3CCC(C(=O)Nc4cccc(Cl)c4)CC3)cc2NC1=O (stereo unspecified) 10 µM [inhibitor, partial curve, poor fit]
COc1ccc(CN2CCN(Cc3c[nH]c4ccccc34)CC2CCO)cc1C (stereo unspecified) 10 µM [inhibitor, partial curve, poor fit]
O=c1c2c3c(sc2nc2n1CCCC2)CCCCC3 28.2 µM [inhibitor, single point]
CC(C)(C)C(=O)Cn1c(=O)n(CCCCCC(=O)NCc2ccccc2Cl)c(=O)c2sccc21 31.6 µM [inhibitor, single point]
O=C(/C=C/c1ccc(Cl)cc1Cl)NCCSc1ccccc1 28.2 µM [inhibitor, single point]
COc1ccc(C)cc1Nc1c2c(nc3ccccc13)CCC2 1.12 µM [inhibitor, full curve, poor fit] and 1.78 µM [inhibitor, partial curve, poor fit]
Cc1ccc(NC(=S)NCc2ccc(Cl)cc2)c(C)c1 12.6 µM [inhibitor, single point]
O=C(c1ccc(Cl)cc1)N1CCC(c2nc(-c3cccs3)no2)CC1 28.2 µM [inhibitor, single point]
S=C(N/N=C1\C2CN3CCN(C2)CC1(c1ccccc1)C3)Nc1ccccc1 10 µM [inhibitor, single point]
CSc1ccccc1NC(=O)Nc1cccc(Cl)c1 28.2 µM [inhibitor, single point]
CC(C)c1ccc(NC(=O)c2cnn(-c3ccccc3)c2NC(=O)c2ccco2)cc1 3.16 µM [inhibitor, full curve]
Cc1cccc(-c2nc(C#N)c(NC3CCCCC3)o2)c1 31.6 µM [inhibitor, partial curve, poor fit]
Cc1c(C(=O)NCCCN2CCOCC2)oc2c1C1(CCC2)SCCS1 10 µM [inhibitor, partial curve]
O=C(Nc1ccnn1C1CCN(Cc2c(F)cccc2Cl)CC1)C1CCCC1 20 µM [inhibitor, single point]
Cc1cccc(OCC(=O)Nc2nnc(S(=O)(=O)N3CCCCCC3)s2)c1 11.2 µM [inhibitor, single point]
COC(=O)[C@]1(C)CCC[C@@]2(C)C3CC[C@@]4(C)C[C@]3(CC[C@H]12)C[C@H]4O (stereo partly specified) 12.6 µM [inhibitor, single point]
CN(CC(=O)Nc1cccc(F)c1)C(=O)CSc1nc2ccccc2s1 10 µM [inhibitor, partial curve]
Cc1ccsc1/C=N/NC(=O)CNC(=O)c1ccco1 11.2 µM [inhibitor, partial curve]
CC(C)CC(O)(c1ccccc1)C(CN1CCOCC1)c1ccccc1 (stereo unspecified) 2.51 µM [inhibitor, full curve, poor fit]
Cc1cc(OCCCCCN2CCCC2)ccc1Cl 10 µM [inhibitor, partial curve, poor fit]

Potency, inactive:
O=C(O)c1cccc(-n2cccc2/C=C2/NC(=O)N(c3ccc(Cl)cc3)C2=O)c1
Nc1ncc(-c2ccccc2)n1CC1CCCO1 (stereo unspecified)
CCc1ccc(C2CC(=O)c3c([nH]c(C(=O)OC4CCCCCC4)c3C)C2)cc1 (stereo unspecified)
COc1cccc(C2NC(C)(C(=O)O)C3C(=O)N(C(C)C)C(=O)C23)c1O (stereo unspecified)
O=C(O)C1C2C=CC(C2)C1C(=O)NCCCN1CCCC1=O (stereo unspecified)
O=C(NNC(=S)NCc1ccccc1)c1cccnc1
COc1ncccc1C(=O)NC1CCCc2c1cnn2-c1cc(C)cc(C)c1 (stereo unspecified)
OCCOCCOc1ccc(-c2nn[nH]n2)cc1
O=C(O)c1ccccc1C(=O)OCC1CCC(=NO)CC1 (stereo unspecified)
COC(=O)c1cc(NC(=O)c2cccc(C(F)(F)F)c2)c(=O)oc1C
OCc1cn(-c2ccccc2)nc1-c1ccc2c(c1)OCCO2
CCc1nc2c(OCC(=O)C(C)(C)C)cccn2c1N(C=O)CC(=O)N(C)C
O=C(COc1ccccc1)Nc1nnc2n1CCS2
CN(C)c1ccc(NC(=S)c2ccc3ccccc3n2)cc1
CC(=O)C1=CCC(c2ccccc2)N(S(=O)(=O)c2ccc(C)cc2)C1 (stereo unspecified)
CCSc1nc(N2CCOCC2)c2c(c1C#N)CC(C)(C)N(C)C2
